Measured values: the RNAGym collection of RNA variant scans (doi:10.7554/elife.90254)
Read counts are not given, so values of variants with three or more changes are uncertain.

B1: LINE1-full (parent)
chain: UACGUAGGUGGUUUUCCCCUGAUAGUGCUAAGGGGGCCUGGAAGUUUGGACUGGGCAGAGCUCAACACAGCGUGGCAAAGUGGCUGUGGCUAGACUGCCUCUCUGGAUUCCUCGUCACUCAGCAGGGCAUCUCUGAGAGAAAUGCC

Variants of: B1
Assay: self-cleavage, relative activity (ratio to wild type); higher = more cleavage; in vitro, sequencing; the parent is a self-cleaving ribozyme

| Variant | self-cleavage |
| --- | --- |
| U85A A121G A141G | 0.11 |
| A22G U26C G27A | 0.38 |
| A2G U14C U20A U39A A57G A107G | 0 |
| U14C A59G U112C | 0 |
| A67G G93A A129U A138G | 0.02 |
| A50U U52A U73A A77G | 2.12 |
| C37A U115C A138G A141G | 1.84 |
| A22G A69U U115C | 0.12 |
| U47C A107G U108C | 2.3 |
| U14C A59G U109C U130C | 0.48 |
| U13C U100C A141G | 1.22 |
| U15A A43G U45C U115C | 1.02 |
| U47C A64G C71G A78G U104C | 0.61 |
| A42G A77G A94G | 1.72 |
| U12G A24G U45C A79G G127A | 0 |
| A22G A57G C98U U108C A136G | 0.64 |
| U13A A43G A59G U73A U100C | 0 |
| U23C U73C U134C | 2.55 |
| U14C U26C A79G | 1.2 |
| U29C U45A A141G A142G | 1.59 |
| U29C U96G A136G | 0 |
| U23C A30C U45C A142G | 1.53 |
| U46C G53A U100C U132A | 1.21 |
| U12A A57G A65G C133A | 0.28 |

| Variant | self-cleavage |
| --- | --- |
| U9C U73A U102A U130C | 1.27 |
| U20C U26G A42G C51U A64G | 0.26 |
| A57G C131U U132C | 0.51 |
| G36A A59G A94G | 0.2 |
| G4A A69U U87A U100C | 0.02 |
| U9C U14C U45C | 1.67 |
| U26C G36A A77G A79G A107U | 0.27 |
| U85C A124G A136U | 0.1 |
| A31C U47A A67U A124U | 0.12 |
| U14A U104C A136G | 2.3 |
| U26C U46C A138G | 0.57 |
| U13C A57U A94U A138U | 0.18 |
| U85C A121G U134G | 0.45 |
| G49A U115C U130A | 0.67 |
| U26C U81C A94U U119C G125A A129C | 1.53 |
| A42G A64G U87A A140G | 0 |
| A42G A57G U62A | 0.05 |
| U46C A50U G60C U108C C128U U143C | 0.01 |
| U9C G10U U100C U104C A129G | 1.84 |
| U46C A57U U115C | 0.75 |
| A6U C113U A136G | 1.26 |
| U12C G34A A69U U100C | 0.1 |
| C38G A50U U52C U130C A140G | 1.79 |
| U9C U39A A57C A69G U85A | 0 |

| Variant | self-cleavage |
| --- | --- |
| U29A U47A A64G | 0.29 |
| A42G U47A U132A | 1.68 |
| U87A A94G U134C | 0.05 |
| A57U U119C U134G | 0.31 |
| A22G U119C U132C | 2.11 |
| U45C U85A C90A U134A A140G | 0.05 |
| U132C U134C A138G | 0.45 |
| A64G A69G U102C A141G | 0 |
| G35A A79C G89A A94G U134C A142G | 0.04 |
| U14C U96C A136G U143C | 0.2 |
| A6U G36A A117G | 0.69 |
| U45G A67G A129G | 0.5 |
| U52G A69G U96A | 0.06 |
| U9C C18U A30G U39G A65C U115A | 0 |
| U14C G54A U96C C99A A124G | 0.04 |
| A22G U52A A77U | 1.41 |
| A22G C76U A142G | 2.78 |
| U13C G114A A117G A138G | 1.41 |
| A24G A78G U102C U119C | 0 |
| A2G U91C U119C C146U | 0 |
| U29C A65G U115C A136G | 0 |
| C19U A77G A141G | 2.01 |
| A2U G40A A42G | 1.35 |
| A42U A57U U143A | 0.08 |

| Variant | self-cleavage |
| --- | --- |
| A42G U102G A124G | 0 |
| U1C U73A U81G | 1.4 |
| G11A U14C U104G | 0.65 |
| G8A C63A A77U | 0.03 |
| A30U U81C U91C A142G | 0.57 |
| U39A G72A A136U | 2.37 |
| A42G C84G A136G | 0.15 |
| A57U U85A U134A A141G | 0 |
| U9C C17U G34A A57G A65C U85C U132C | 1.31 |
| G70A U112G U143C | 0.13 |
| A2C G36A A59U U100G C116A | 0.69 |
| U73C U87C U115C | 0 |
| U1C C38U U47C A136G A140G | 0.84 |
| U14C U45C C51U U73C U132C | 0.71 |
| G32A U96A A107G | 0.09 |
| A30U G36A G114A | 1.44 |
| U45A A107G U134C | 1.29 |
| U13C G35A A124G | 1.03 |
| U52A C56U A65G | 0.2 |
| U14C U108C A129G | 1.86 |
| A31G G114A U132C | 1.05 |
| U81G G93A A121U | 0.05 |
| U12C G44A U52A G72A A138G | 1.82 |
| U13C A30G U96G | 0 |

| Variant | self-cleavage |
| --- | --- |
| U26C A67G U112C A136G | 0 |
| U12C U100C U112A A141U | 2.11 |
| A31G G72A U104G | 1.02 |
| A2U U9C A121G | 1.43 |
| U26C G34U U62C A136U | 0.07 |
| U62C U73A C113U | 0.05 |
| A78G U115A U134C | 1.49 |
| A31G U73C U115A | 2.3 |
| U39A A65G G75U | 0.02 |
| A43G A121C C128A | 0.66 |
| U46A A67G C99U | 0.2 |
| A43G G49U A59G C71A U104C | 0.05 |
| G32C U47C U104C A138G A142C | 1.41 |
| A31G A43G A65G | 0 |
| U5C A50U A141G | 0.86 |
| G33A U45A C128U A136U | 1.24 |
| A2U U13C U62C | 0.39 |
| A57U U81C U134A U143C | 0.11 |
| A65U G93U A124G | 0.02 |
| U20C A59G U108C C118U | 0.12 |
| U13C U26C A31G U73A U108C G144A | 0.57 |
| U5C G55C U62C A136G | 0.14 |
| G34U A79U A138U | 2.69 |
| U81A A92C U134C | 0.37 |

| Variant | self-cleavage |
| --- | --- |
| U1C C90G U96C | 0.1 |
| C56U A57G U109C | 0 |
| U29C U115C A129G | 1.36 |
| U96C U132C C145U | 0.13 |
| A64G U102C A129G | 0.18 |
| U45C U47A A69C U91A | 0.12 |
| G25A U26C A43U U62C A79G A141C | 0.18 |
| A57U A77U A107G A142U | 0.1 |
| U15C U85C A107U U115C | 0 |
| C63U A69G U85A A141G | 0.04 |
| G8U C16U U132A | 0 |
| A59G A78G G106A U119A | 0.04 |
| U9G U13C U143C | 0 |
| A2G A78G G80U | 0.38 |
| U13C A65C A94U | 0.05 |
| U15C U73C A107G | 1.31 |
| A30U C63U A140G | 0.36 |
| U47A A50C U96A | 0.07 |
| U14C U39C G80A U130C | 1.98 |
| U9A U20C C113U A129U C145A | 1.17 |
| G4U U87C A121U A142G | 0 |
| U9C U115C G122A | 2.03 |
| U12C U13C U115C | 0.79 |
| G126U U132C U134C | 1.95 |

| Variant | self-cleavage |
| --- | --- |
| U1G U14C U46C A78G | 0.56 |
| U26C C113U A117G | 2.04 |
| A22G U112A G127A | 1.71 |
| U46C U96C A141U | 0.11 |
| A24G U52A A64U C90U U108C | 0.07 |
| U14C A59U U104A U119C | 0.3 |
| A129G U143A C146A | 1.34 |
| A6G A31U A65G | 0 |
| U46C U62A U134C | 0.07 |
| G35A A43G G93C | 0.04 |
| U20C U52A C103A U132G | 1.28 |
| G4U U100A U112C | 1.12 |
| A24G A78G U102C A141G | 1.95 |
| A117U A129U A138G A140G | 1.37 |
| C19U U47A A141G | 0.37 |
| U100A U108C G127A | 1.23 |
| U14C U46C U115C | 0.98 |
| G72U U85C A121U U132C | 0.22 |
| U26A A43G A59G C101A | 0.1 |
| U5C A69U U119C | 0.14 |
| U9A G48A A94U | 0.28 |
| U46C A69U C71A | 0.02 |
| G48C A79G U143G | 0.91 |
